# In paper PMC6464128:
# The chains behind the UniProt entries cited, without tags or fusion partners.
# UniProt P33993: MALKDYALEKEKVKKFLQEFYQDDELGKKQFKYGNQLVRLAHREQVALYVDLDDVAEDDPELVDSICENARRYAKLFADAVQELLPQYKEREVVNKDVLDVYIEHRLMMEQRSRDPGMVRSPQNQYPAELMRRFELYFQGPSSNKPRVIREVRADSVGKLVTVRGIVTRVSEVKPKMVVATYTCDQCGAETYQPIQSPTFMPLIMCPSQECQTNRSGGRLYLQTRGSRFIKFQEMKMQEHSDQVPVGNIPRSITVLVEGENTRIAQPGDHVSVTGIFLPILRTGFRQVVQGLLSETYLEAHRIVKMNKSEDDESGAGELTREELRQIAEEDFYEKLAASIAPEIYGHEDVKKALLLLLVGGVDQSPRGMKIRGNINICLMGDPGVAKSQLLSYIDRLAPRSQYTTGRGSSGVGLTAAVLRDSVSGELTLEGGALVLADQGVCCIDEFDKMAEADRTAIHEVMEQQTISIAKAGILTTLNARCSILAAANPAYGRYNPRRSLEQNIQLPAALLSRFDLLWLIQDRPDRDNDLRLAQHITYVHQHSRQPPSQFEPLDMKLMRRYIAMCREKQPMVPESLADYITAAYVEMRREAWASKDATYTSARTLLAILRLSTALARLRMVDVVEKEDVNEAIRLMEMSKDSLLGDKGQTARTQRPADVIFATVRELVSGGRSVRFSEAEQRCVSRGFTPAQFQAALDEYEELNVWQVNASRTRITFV
# Results are given in words; binding and its absence hold for the method and conditions named. For some of these results: Binding seen in cells or lysates may run through a third protein. Some results given as binding are weak or reduced against the parent protein; the word gives no strength. Tags and fused reporters may be left off the sequences shown.
# T1: CTC1, yeast two-hybrid fusion (human) (UniProt Q2NKJ3)
# T1 sequence: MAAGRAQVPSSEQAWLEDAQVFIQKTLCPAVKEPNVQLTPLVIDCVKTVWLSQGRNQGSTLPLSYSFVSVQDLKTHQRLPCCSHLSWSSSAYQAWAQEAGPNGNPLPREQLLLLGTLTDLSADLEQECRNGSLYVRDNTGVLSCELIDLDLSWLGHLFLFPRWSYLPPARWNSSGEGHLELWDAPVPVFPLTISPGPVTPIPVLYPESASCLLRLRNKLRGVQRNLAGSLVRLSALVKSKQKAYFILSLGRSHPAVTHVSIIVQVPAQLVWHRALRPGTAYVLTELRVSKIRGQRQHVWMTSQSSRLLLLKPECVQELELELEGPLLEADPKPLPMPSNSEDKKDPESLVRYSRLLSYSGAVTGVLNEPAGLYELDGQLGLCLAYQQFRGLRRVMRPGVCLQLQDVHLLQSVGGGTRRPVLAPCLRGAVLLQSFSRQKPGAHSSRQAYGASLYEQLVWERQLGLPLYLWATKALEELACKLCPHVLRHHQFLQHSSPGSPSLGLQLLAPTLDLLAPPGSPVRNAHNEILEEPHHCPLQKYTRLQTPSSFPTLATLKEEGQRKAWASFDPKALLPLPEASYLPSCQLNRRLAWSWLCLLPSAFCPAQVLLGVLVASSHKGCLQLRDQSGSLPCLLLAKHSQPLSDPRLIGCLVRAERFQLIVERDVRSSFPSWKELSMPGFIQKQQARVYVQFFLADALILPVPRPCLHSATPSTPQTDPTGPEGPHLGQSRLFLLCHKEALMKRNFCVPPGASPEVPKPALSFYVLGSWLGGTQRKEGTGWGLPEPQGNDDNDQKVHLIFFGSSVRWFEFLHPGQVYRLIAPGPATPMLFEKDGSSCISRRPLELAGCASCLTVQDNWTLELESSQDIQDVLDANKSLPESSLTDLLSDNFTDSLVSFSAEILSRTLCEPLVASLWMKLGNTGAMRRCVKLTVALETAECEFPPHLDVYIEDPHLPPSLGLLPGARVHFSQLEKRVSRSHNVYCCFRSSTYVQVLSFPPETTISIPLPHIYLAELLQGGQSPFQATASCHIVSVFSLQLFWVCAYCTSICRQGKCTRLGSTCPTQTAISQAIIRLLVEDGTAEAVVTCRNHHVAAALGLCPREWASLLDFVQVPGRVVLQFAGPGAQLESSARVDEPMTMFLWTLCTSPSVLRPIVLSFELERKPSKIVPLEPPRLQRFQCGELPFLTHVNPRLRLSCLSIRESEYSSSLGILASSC
# T2: STN1, yeast two-hybrid fusion (human) (UniProt Q9H668)
# T2 sequence: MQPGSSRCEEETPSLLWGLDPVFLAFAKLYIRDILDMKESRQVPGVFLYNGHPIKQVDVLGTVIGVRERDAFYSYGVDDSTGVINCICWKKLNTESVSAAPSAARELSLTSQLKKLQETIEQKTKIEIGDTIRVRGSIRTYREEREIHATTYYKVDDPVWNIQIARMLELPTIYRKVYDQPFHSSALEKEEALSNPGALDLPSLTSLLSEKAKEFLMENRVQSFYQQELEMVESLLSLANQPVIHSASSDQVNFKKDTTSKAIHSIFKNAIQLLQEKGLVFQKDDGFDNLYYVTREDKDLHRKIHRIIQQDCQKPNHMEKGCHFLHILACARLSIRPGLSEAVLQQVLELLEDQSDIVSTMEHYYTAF
# T3: TEN1, yeast two-hybrid fusion (human) (UniProt Q86WV5)
# T3 sequence: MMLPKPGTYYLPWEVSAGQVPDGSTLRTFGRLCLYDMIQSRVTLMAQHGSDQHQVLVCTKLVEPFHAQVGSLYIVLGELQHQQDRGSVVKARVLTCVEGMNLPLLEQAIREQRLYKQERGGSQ
# How the values were obtained:
# [1] = biological target: T1, CTC1, yeast two-hybrid fusion (human); assay: two-hybrid; Matchmaker GAL4 system; mating of S. cerevisiae Y187 (pGBKT7) and AH109 (pGADT7); diploids from DDO spotted on QDO (high stringency) or TDO (less stringent) medium, 30°C, growth recorded after 3-4 d
# [2] = biological target: T2, STN1, yeast two-hybrid fusion (human); assay: as above
# [3] = biological target: MCM7 (endogenous) (human (endogenous in HEK 293T)) (UniProt P33993); assay: co-IP; reciprocal: lysates from HEK 293T cells transfected with plasmids expressing CST; IP with MCM7 antibody or IgG control; STN1 detected by blot
# [4] = biological target: T3, TEN1, yeast two-hybrid fusion (human); assay: two-hybrid; Matchmaker GAL4 system; mating of S. cerevisiae Y187 (pGBKT7) and AH109 (pGADT7); diploids from DDO spotted on QDO (high stringency) or TDO (less stringent) medium, 30°C, growth recorded after 3-4 d
Binder,binding [4],further results
"STN1, yeast two-hybrid fusion (protein, UniProt Q9H668 1-368) MQPGSSRCEEETPSLLWGLDPVFLAFAKLYIRDILDMKESRQVPGVFLYNGHPIKQVDVLGTVIGVRERDAFYSYGVDDSTGVINCICWKKLNTESVSAAPSAARELSLTSQLKKLQETIEQKTKIEIGDTIRVRGSIRTYREEREIHATTYYKVDDPVWNIQIARMLELPTIYRKVYDQPFHSSALEKEEALSNPGALDLPSLTSLLSEKAKEFLMENRVQSFYQQELEMVESLLSLANQPVIHSASSDQVNFKKDTTSKAIHSIFKNAIQLLQEKGLVFQKDDGFDNLYYVTREDKDLHRKIHRIIQQDCQKPNHMEKGCHFLHILACARLSIRPGLSEAVLQQVLELLEDQSDIVSTMEHYYTAF",–,binding [1]: binds
"TEN1, yeast two-hybrid fusion (protein, UniProt Q86WV5 1-123) MMLPKPGTYYLPWEVSAGQVPDGSTLRTFGRLCLYDMIQSRVTLMAQHGSDQHQVLVCTKLVEPFHAQVGSLYIVLGELQHQQDRGSVVKARVLTCVEGMNLPLLEQAIREQRLYKQERGGSQ",–,binding [2]: binds
"Flag-tagged STN1 (protein, UniProt Q9H668 1-368) MQPGSSRCEEETPSLLWGLDPVFLAFAKLYIRDILDMKESRQVPGVFLYNGHPIKQVDVLGTVIGVRERDAFYSYGVDDSTGVINCICWKKLNTESVSAAPSAARELSLTSQLKKLQETIEQKTKIEIGDTIRVRGSIRTYREEREIHATTYYKVDDPVWNIQIARMLELPTIYRKVYDQPFHSSALEKEEALSNPGALDLPSLTSLLSEKAKEFLMENRVQSFYQQELEMVESLLSLANQPVIHSASSDQVNFKKDTTSKAIHSIFKNAIQLLQEKGLVFQKDDGFDNLYYVTREDKDLHRKIHRIIQQDCQKPNHMEKGCHFLHILACARLSIRPGLSEAVLQQVLELLEDQSDIVSTMEHYYTAF",–,binding [3]: binds
"MCM3, yeast two-hybrid fusion (protein, UniProt P25205 1-808) MAGTVVLDDVELREAQRDYLDFLDDEEDQGIYQSKVRELISDNQYRLIVNVNDLRRKNEKRANRLLNNAFEELVAFQRALKDFVASIDATYAKQYEEFYVGLEGSFGSKHVSPRTLTSCFLSCVVCVEGIVTKCSLVRPKVVRSVHYCPATKKTIERRYSDLTTLVAFPSSSVYPTKDEENNPLETEYGLSVYKDHQTITIQEMPEKAPAGQLPRSVDVILDDDLVDKAKPGDRVQVVGTYRCLPGKKGGYTSGTFRTVLIACNVKQMSKDAQPSFSAEDIAKIKKFSKTRSKDIFDQLAKSLAPSIHGHDYVKKAILCLLLGGVERDLENGSHIRGDINILLIGDPSVAKSQLLRYVLCTAPRAIPTTGRGSSGVGLTAAVTTDQETGERRLEAGAMVLADRGVVCIDEFDKMSDMDRTAIHEVMEQGRVTIAKAGIHARLNARCSVLAAANPVYGRYDQYKTPMENIGLQDSLLSRFDLLFIMLDQMDPEQDREISDHVLRMHRYRAPGEQDGDAMPLGSAVDILATDDPNFSQEDQQDTQIYEKHDNLLHGTKKKKEKMVSAAFMKKYIHVAKIIKPVLTQESATYIAEEYSRLRSQDSMSSDTARTSPVTARTLETLIRLATAHAKARMSKTVDLQDAEEAVELVQYAYFKKVLEKEKKRKKRSEDESETEDEEEKSQEDQEQKRKRRKTRQPDAKDGDSYDPYDFSDTEEEMPQVHTPKTADSQETKESQKVELSESRLKAFKVALLDVFREAHAQSIGMNRLTESINRDSEEPFSSVEIQAALSKMQDDNQVMVSEGIIFLI",no binding,–
"MCM5, yeast two-hybrid fusion (protein, UniProt P33992 1-734) MSGFDDPGIFYSDSFGGDAQADEGQARKSQLQRRFKEFLRQYRVGTDRTGFTFKYRDELKRHYNLGEYWIEVEMEDLASFDEDLADYLYKQPAEHLQLLEEAAKEVADEVTRPRPSGEEVLQDIQVMLKSDASPSSIRSLKSDMMSHLVKIPGIIIAASAVRAKATRISIQCRSCRNTLTNIAMRPGLEGYALPRKCNTDQAGRPKCPLDPYFIMPDKCKCVDFQTLKLQELPDAVPHGEMPRHMQLYCDRYLCDKVVPGNRVTIMGIYSIKKFGLTTSRGRDRVGVGIRSSYIRVLGIQVDTDGSGRSFAGAVSPQEEEEFRRLAALPNVYEVISKSIAPSIFGGTDMKKAIACLLFGGSRKRLPDGLTRRGDINLLMLGDPGTAKSQLLKFVEKCSPIGVYTSGKGSSAAGLTASVMRDPSSRNFIMEGGAMVLADGGVVCIDEFDKMREDDRVAIHEAMEQQTISIAKAGITTTLNSRCSVLAAANSVFGRWDETKGEDNIDFMPTILSRFDMIFIVKDEHNEERDVMLAKHVITLHVSALTQTQAVEGEIDLAKLKKFIAYCRVKCGPRLSAEAAEKLKNRYIIMRSGARQHERDSDRRSSIPITVRQLEAIVRIAEALSKMKLQPFATEADVEEALRLFQVSTLDAALSGTLSGVEGFTSQEDQEMLSRIEKQLKRRFAIGSQVSEHSIIKDFTKQKYPEHAIHKVLQLMLRRGEIQHRMQRKVLYRLK",no binding,–
"MCM6, yeast two-hybrid fusion (protein, UniProt Q14566 1-821) MDLAAAAEPGAGSQHLEVRDEVAEKCQKLFLDFLEEFQSSDGEIKYLQLAEELIRPERNTLVVSFVDLEQFNQQLSTTIQEEFYRVYPYLCRALKTFVKDRKEIPLAKDFYVAFQDLPTRHKIRELTSSRIGLLTRISGQVVRTHPVHPELVSGTFLCLDCQTVIRDVEQQFKYTQPNICRNPVCANRRRFLLDTNKSRFVDFQKVRIQETQAELPRGSIPRSLEVILRAEAVESAQAGDKCDFTGTLIVVPDVSKLSTPGARAETNSRVSGVDGYETEGIRGLRALGVRDLSYRLVFLACCVAPTNPRFGGKELRDEEQTAESIKNQMTVKEWEKVFEMSQDKNLYHNLCTSLFPTIHGNDEVKRGVLLMLFGGVPKTTGEGTSLRGDINVCIVGDPSTAKSQFLKHVEEFSPRAVYTSGKASSAAGLTAAVVRDEESHEFVIEAGALMLADNGVCCIDEFDKMDVRDQVAIHEAMEQQTISITKAGVKATLNARTSILAAANPISGHYDRSKSLKQNINLSAPIMSRFDLFFILVDECNEVTDYAIARRIVDLHSRIEESIDRVYSLDDIRRYLLFARQFKPKISKESEDFIVEQYKHLRQRDGSGVTKSSWRITVRQLESMIRLSEAMARMHCCDEVQPKHVKEAFRLLNKSIIRVETPDVNLDQEEEIQMEVDEGAGGINGHADSPAPVNGINGYNEDINQESAPKASLRLGFSEYCRISNLIVLHLRKVEEEEDESALKRSELVNWYLKEIESEIDSEEELINKKRIIEKVIHRLTHYDHVLIELTQAGLKGSTEGSESYEEDPYLVVNPNYLLED",no binding,–
"CDC45, yeast two-hybrid fusion (protein, UniProt O75419 1-566) MFVSDFRKEFYEVVQSQRVLLFVASDVDALCACKILQALFQCDHVQYTLVPVSGWQELETAFLEHKEQFHYFILINCGANVDLLDILQPDEDTIFFVCDTHRPVNVVNVYNDTQIKLLIKQDDDLEVPAYEDIFRDEEEDEEHSGNDSDGSEPSEKRTRLEEEIVEQTMRRRQRREWEARRRDILFDYEQYEYHGTSSAMVMFELAWMLSKDLNDMLWWAIVGLTDQWVQDKITQMKYVTDVGVLQRHVSRHNHRNEDEENTLSVDCTRISFEYDLRLVLYQHWSLHDSLCNTSYTAARFKLWSVHGQKRLQEFLADMGLPLKQVKQKFQAMDISLKENLREMIEESANKFGMKDMRVQTFSIHFGFKHKFLASDVVFATMSLMESPEKDGSGTDHFIQALDSLSRSNLDKLYHGLELAKKQLRATQQTIASCLCTNLVISQGPFLYCSLMEGTPDVMLFSRPASLSLLSKHLLKSFVCSTKNRRCKLLPLVMAAPLSMEHGTVTVVGIPPETDSSDRKNFFGRAFEKAAESTSSRMLHNHFDLSVIELKAEDRSKFLDALISLLS",no binding,–
